Measured values: the antibiotic and cytotoxicity screens of Wong et al. (2023)
The list shows a part of the results.

Key:
[1] = system: HSkMC (human skeletal muscle cells); experiment: cytotoxicity call (relative viability < 0.9); conditions: 10 µM
[2] = system: HepG2; experiment: cytotoxicity call (relative viability < 0.9); conditions: 10 µM
[3] = system: S. aureus RN4220; experiment: growth inhibition call (relative growth <= 0.2); conditions: 50 µM

Compound | cytotoxicity call [1] | cytotoxicity call [2] | growth inhibition call [3]
O=c1cc(C(F)(F)F)[nH]c(=O)[nH]1 | inactive | inactive | inactive
C=CC[C@@H](CC(=O)N[C@@H](CO)Cc1ccccc1)C(=O)NCCOC(=O)[C@H](CC=C)CC(=O)OC(C)(C)C | inactive | inactive | inactive
C[C@@H]1CN([C@H](C)CO)C(=O)c2cc(NC(=O)Nc3ccc(C(F)(F)F)cc3)ccc2O[C@H]1CN(C)Cc1ccc(-c2ccccc2)cc1 | active | active | inactive
COc1ccc(NC(=O)N(C)C[C@@H]2Oc3ccc(NC(=O)CCCCCC(=O)Nc4ccccc4N)cc3C(=O)N([C@H](C)CO)C[C@@H]2C)cc1 | inactive | active | inactive
C[C@H]1CN([C@@H](C)CO)C(=O)c2cccc(NS(C)(=O)=O)c2O[C@@H]1CN(C)C(=O)Nc1ccc(F)cc1 | inactive | inactive | inactive
Cc1noc(C)c1S(=O)(=O)Nc1ccc2c(c1)C(=O)N([C@H](C)CO)C[C@@H](C)[C@H](CN(C)S(C)(=O)=O)O2 | inactive | inactive | inactive
C[C@H](CO)N1C[C@H](C)[C@H](CN(C)C(=O)Nc2ccccc2)Oc2ccc(NC(=O)Cn3cnnn3)cc2C1=O | inactive | inactive | inactive
COCC#Cc1cnc2c(c1)C(=O)N([C@H](C)CO)C[C@H](C)[C@@H](CN(C)C(=O)Nc1ccc(OC)cc1)O2 | inactive | inactive | inactive
C[C@H](CO)N1C[C@H](C)[C@H](CN(C)S(=O)(=O)c2ccccc2)Oc2ccc(NS(=O)(=O)c3cccs3)cc2C1=O | inactive | inactive | inactive
O=C1CC[C@H](C(=O)O)N1 | inactive | inactive | inactive
CCCc1cc(-c2nc(-c3ccc(C)cc3)cs2)ccn1 | inactive | inactive | inactive
O=C(O)c1cc(-c2ccccc2)nc2ccccc12 | inactive | inactive | inactive
Cc1noc(C)c1NC(=O)Nc1ccc2c(c1)CC(=O)N([C@@H](C)CO)C[C@@H](C)[C@@H](CN(C)S(C)(=O)=O)O2 | inactive | inactive | inactive
C[C@@H]1CN([C@@H](C)CO)C(=O)c2cc(NC(=O)c3ccncc3)ccc2O[C@@H](C)CCCCO[C@@H]1CN(C)S(=O)(=O)c1ccc(Cl)cc1 | inactive | inactive | inactive
Cc1cn[nH]c1.Cl | inactive | inactive | inactive
COc1ccc(S(=O)(=O)N(C)C[C@@H]2Oc3c(NC(=O)c4cnccn4)cccc3C(=O)N([C@H](C)CO)C[C@H]2C)cc1 | inactive | inactive | inactive
C[C@@H]1CCCCO[C@@H](CN(C)Cc2ccccc2)[C@H](C)CN([C@@H](C)CO)C(=O)c2cc(NC(=O)Cc3ccccc3)ccc2O1 | inactive | inactive | inactive
C[C@H](CO)N1C[C@H](C)[C@@H](CN(C)C(=O)Nc2ccc(C(F)(F)F)cc2)Oc2ccc(NS(=O)(=O)c3ccc(Cl)cc3)cc2CC1=O | inactive | inactive | inactive
C[C@@H]1CN([C@@H](C)CO)C(=O)c2cc(NC(=O)Nc3ccc(C(F)(F)F)cc3)ccc2O[C@@H](C)CCCCO[C@@H]1CN(C)Cc1ccncc1 | inactive | active | inactive
C[C@H](CO)N1C[C@H](C)[C@H](CN(C)C(=O)Nc2ccccc2)Oc2ccc(NC(=O)CCCN(C)C)cc2C1=O | inactive | inactive | inactive
C[C@H](CO)N1C[C@H](C)[C@@H](CN(C)Cc2ccc(C(=O)O)cc2)Oc2c(NC(=O)c3cnccn3)cccc2C1=O | inactive | inactive | inactive
COc1ccc(S(=O)(=O)N(C)C[C@H]2OCCCC[C@@H](C)Oc3ccc(NC(=O)Nc4ccc5c(c4)OCO5)cc3C(=O)N([C@@H](C)CO)C[C@H]2C)cc1 | inactive | inactive | inactive
Cc1ccc(S(=O)(=O)Nc2ccc3c(c2)C(=O)N([C@H](C)CO)C[C@@H](C)[C@H](CN(C)C(=O)Nc2c(C)noc2C)OCCCC[C@@H](C)O3)cc1 | inactive | inactive | inactive
COCCNC(=O)C[C@@H]1CC[C@H]2[C@@H](COc3ccc(NC(=O)Nc4cccc(F)c4)cc3C(=O)N2C)O1 | inactive | inactive | inactive
O=C(C[C@@H]1C[C@H]2c3cc(NS(=O)(=O)c4ccc(F)cc4)ccc3O[C@H]2[C@H](CO)O1)NCc1ccncc1 | inactive | inactive | inactive
CC(C)NC(=O)Nc1ccc2c(c1)C(=O)N([C@H](C)CO)C[C@@H](C)[C@H](CN(C)S(=O)(=O)c1cn(C)cn1)OCCCC[C@@H](C)O2 | inactive | inactive | inactive
